Source: the supplement of paper PMC12217912
The other results are listed elsewhere or left out. The full chains were built here from the parent and the listed change. Inactive controls read about 0.05.

B1: TEV protease; numbered along this chain (parent)
chain: MGESLFKGPRDYNPISSSICHLTNESDGHTTSLYGIGFGPFIITNKHLFRRNNGTLVVQSLHGVFKVKDTTTLQQHLVDGRDMIIIRMPKDFPPFPQKLKFREPQREERICLVTTNFQTKSMSSMVSDTSCTFPSGDGIFWKHWIQTKDGQCGSPLVSTRDGFIVGIHSASNFTNTNNYFTSVPKNFMELLTNQEAQQWVSGWRLNADSVLWGGHKVFMVKPEEPFQPVKEATQL

Variants of: B1
Assay: raw area under fraction-flipped curve 0-4 h after induction (AUC4h, not background-subtracted), DNA-recorder readout of cleavage of the substrate (dimensionless); higher = more cleavage of the substrate by the protease variant
Conditions: temperature: 34 °C; time window: 0-4 h after rhamnose induction
Procedure: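 In vivo DNA recorder in E. coli TOP10(DE3) ΔrhaA at 34 °C. Each TEVp single-site mutant (parent TEVp 0) is paired with a single-site variant of the 7-mer TEVs (canonical ENLYFQ|S). The substrate sits between flexible linkers in a Bxb1-sfGFP-TEVs-SsrA fusion, so cleavage stabilises Bxb1 and speeds flipping of a recombination array, read by NGS. The value is the raw area under the fraction-flipped curve over 0-4 h after rhamnose induction (AUC4h), with ≥20 reads per time point. It is not background-subtracted; inactive controls average about 0.047.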
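Further: Bxb1 expression induced with 0.2% (w/v) L-rhamnose at OD600 near 0.5, cultures sampled hourly, flipped fraction per protease–substrate barcode pair counted by paired-end Illumina sequencing.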

Variant	area with substrate EALYFQS	area with substrate EELYFQS	area with substrate EGLYFQS	area with substrate EHLYFQS	area with substrate EILYFQS	area with substrate EKLYFQS	area with substrate ELLYFQS	area with substrate EMLYFQS	area with substrate EQLYFQS	area with substrate ESLYFQS	area with substrate ETLYFQS	area with substrate EVLYFQS	area with substrate EYLYFQS	area with substrate ECLYFQS	area with substrate EPLYFQS	area with substrate ERLYFQS	area with substrate EWLYFQS	area with substrate EDLYFQS	area with substrate EFLYFQS
Q74A	0.116	0.119	0.0871	0.104	0.0986	0.0944	0.0886	0.111	0.121	0.11	0.104	0.0918	0.0985	–	–	–	–	–	–
L73D	0.0675	0.0591	–	0.0542	–	0.0483	0.0567	–	–	0.052	0.0589	0.0475	–	0.0377	0.0508	0.0656	0.0554	–	–
L73C	0.0787	–	–	–	0.0685	–	–	0.068	0.0879	0.0638	–	0.0574	0.0661	–	–	–	–	–	–
L73H	0.0665	–	–	–	0.0467	0.0458	0.0515	0.0614	0.0491	0.0247	–	0.0611	–	–	0.0695	0.063	0.0548	0.0806	0.0684
T70K	0.0627	–	–	–	0.0529	0.0635	–	–	–	–	–	–	–	–	–	–	–	–	–
T70P	0.0919	0.0834	–	0.0969	–	–	–	–	0.104	0.0673	–	0.0706	–	0.0722	0.0497	0.071	0.0662	–	–
S18H	0.15	0.121	–	–	–	0.123	0.0825	0.116	0.131	0.0956	–	0.0791	–	0.102	0.12	0.105	–	–	–
G2L	0.162	0.179	0.111	–	–	0.137	0.12	–	–	0.12	–	–	–	–	0.168	0.169	0.125	–	–
G2C	0.0564	–	–	–	–	0.0569	–	–	–	–	–	–	–	–	0.121	0.0722	–	–	0.129
H47Q	0.0552	0.0521	0.0816	–	0.0466	0.0613	–	0.0554	0.0672	0.0609	0.0609	0.0514	–	–	0.0656	–	0.0651	0.0535	–
H62L	0.156	0.0879	0.114	–	–	–	0.0933	0.0934	0.11	0.0928	–	0.109	–	–	0.115	–	0.108	0.147	0.0856
R50I	0.151	–	0.099	0.135	0.107	0.144	0.123	–	0.133	0.139	–	0.102	0.109	0.139	–	–	–	–	–
K66N	0.115	0.0952	–	–	–	0.0967	–	0.116	0.101	–	–	–	–	–	–	0.0924	–	–	–
L77C	0.0854	–	–	0.0761	0.0698	0.0996	0.0698	0.0802	0.105	0.0649	–	0.0775	0.0801	0.0853	–	0.0768	–	–	–
D11C	0.112	0.13	0.11	–	0.0783	0.0933	0.112	0.103	0.135	0.0935	0.0994	0.098	–	–	–	0.0991	–	0.139	–
D69K	0.0769	–	0.0818	–	0.0951	0.0862	–	–	–	0.114	–	–	–	–	–	0.0876	–	–	–
Q75I	0.0906	–	0.0809	–	0.0193	–	–	0.0848	0.0913	0.0847	–	–	0.0695	–	0.098	0.0717	0.0861	0.105	–
